# According to the supplement of paper PMC8728848:
# The other results are listed elsewhere or left out.
# B1: HML-Native (Hypnea musciformis), P84871 (protein)
# chain: QKFCTLDIAPVCCQIVIGGGMYTAGNACMCEGFVSGVGRCENPKECPCTREAQIPSCCSSRWGLVSVTGKCACDCLGGTVAFPEPCPSPY
# Key:
# Test in all cases: glycan array binding signal (z-score within array); higher = stronger binding
# Settings in all cases: glycan notation: IUPAC condensed, linker removed
# [1] = target: Neu5Ac(a2-6)Gal(b1-4)GlcNAc(b1-3)Gal(b1-4)GlcNAc(b1-3)Gal(b1-4)GlcNAc
# How it was run: (§1)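 Negative Z-scores can be read as non-binding. The Z-score is calculated within each array and then averaged across arrays of one protein sequence at different concentrations or buffers and across linkers. Arrays, 3228 in all, were curated from the Consortium for Functional Glycomics database and kept only where the protein sequence was available.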
# [2] = target: Neu5Ac(a2-6)Gal(b1-4)GlcNAc(b1-3)Gal(b1-4)GlcNAc(b1-3)Gal(b1-4)GlcNAc(b1-2)Man(a1-3)[Neu5Ac(a2-6)Gal(b1-4)GlcNAc(b1-3)Gal(b1-4)GlcNAc(b1-3)Gal(b1-4)GlcNAc(b1-2)Man(a1-6)]GalNAc
# How it was run: as §1
# [3] = target: Neu5Ac(a2-6)Gal(b1-4)GlcNAc(b1-3)Gal(b1-4)GlcNAc(b1-3)GalNAc
# How it was run: as §1
# [4] = target: Neu5Ac(a2-6)Gal(b1-4)GlcNAc(b1-3)Gal(b1-4)GlcNAc(b1-3)[Neu5Ac(a2-6)Gal(b1-4)GlcNAc(b1-3)Gal(b1-4)GlcNAc(b1-6)]GalNAc
# How it was run: as §1
# [5] = target: Neu5Ac(a2-6)Gal(b1-4)GlcNAc(b1-3)Gal(b1-4)GlcNAc(b1-6)[Gal(b1-3)]GalNAc
# How it was run: as §1
# [6] = target: Neu5Ac(a2-6)Gal(b1-4)GlcNAc(b1-3)Gal(b1-4)[Fuc(a1-3)]GlcNAc(b1-3)Gal(b1-4)[Fuc(a1-3)]GlcNAc
# How it was run: as §1
# [7] = target: Neu5Ac(a2-6)Gal(b1-4)GlcNAc(b1-3)GalNAc
# How it was run: as §1
# [8] = target: Neu5Ac(a2-6)Gal(b1-4)GlcNAc(b1-3)[Neu5Ac(a2-6)Gal(b1-4)GlcNAc(b1-6)]GalNAc
# How it was run: as §1
# [9] = target: Neu5Ac(a2-6)Gal(b1-4)GlcNAc(b1-6)GalNAc
# How it was run: as §1
# [10] = target: Neu5Ac(a2-6)Gal(b1-4)GlcNAc(b1-6)[Gal(b1-3)GlcNAc(b1-3)]Gal(b1-4)Glc
# How it was run: as §1
# [11] = target: Neu5Ac(a2-6)Gal(b1-4)GlcNAc(b1-6)[Gal(b1-3)]GalNAc
# How it was run: as §1
# [12] = target: Neu5Ac(a2-6)Gal(b1-4)GlcNAc6S
# How it was run: as §1
# Neu5Ac(a2-6)GalNAc = target: Neu5Ac(a2-6)GalNAc
# How it was run: as §1
# [13] = target: Neu5Ac(a2-6)GalNAc(b1-4)GlcNAc
# How it was run: as §1
# [14] = target: Neu5Ac(a2-6)GalNAc(b1-4)GlcNAc6S
# How it was run: as §1
# [15] = target: Neu5Ac(a2-6)GlcNAc(b1-4)GlcNAc
# How it was run: as §1
# [16] = target: Neu5Ac(a2-6)GlcNAc(b1-4)GlcNAc(b1-4)GlcNAc
# How it was run: as §1
# Neu5Ac(a2-8)Neu5Ac = target: Neu5Ac(a2-8)Neu5Ac
# How it was run: as §1
# [17] = target: Neu5Ac(a2-8)Neu5Ac(a2-3)Gal(b1-3)GalNAc(b1-4)[Neu5Ac(a2-3)]Gal(b1-4)Glc
# How it was run: as §1
# [18] = target: Neu5Ac(a2-8)Neu5Ac(a2-3)Gal(b1-3)GalNAc(b1-4)[Neu5Ac(a2-8)Neu5Ac(a2-3)]Gal(b1-4)Glc
# How it was run: as §1
# [19] = target: Neu5Ac(a2-8)Neu5Ac(a2-3)Gal(b1-4)Glc
# How it was run: as §1
# [20] = target: Neu5Ac(a2-8)Neu5Ac(a2-3)Gal(b1-4)GlcNAc
# How it was run: as §1
# [21] = target: Neu5Ac(a2-8)Neu5Ac(a2-3)[Gal(b1-3)GalNAc(b1-4)]Gal(b1-4)Glc
# How it was run: as §1
# [22] = target: Neu5Ac(a2-8)Neu5Ac(a2-3)[GalNAc(b1-4)]Gal(b1-4)Glc
# How it was run: as §1
# [23] = target: Neu5Ac(a2-8)Neu5Ac(a2-8)Neu5Ac
# How it was run: as §1
# [24] = target: Neu5Ac(a2-8)Neu5Ac(a2-8)Neu5Ac(a2-3)Gal(b1-4)Glc
# How it was run: as §1
# [25] = target: Neu5Ac(a2-8)Neu5Ac(a2-8)Neu5Ac(a2-3)[Gal(b1-3)GalNAc(b1-4)]Gal(b1-4)Glc
# How it was run: as §1
# [26] = target: Neu5Ac(a2-8)Neu5Ac(a2-8)Neu5Ac(a2-3)[GalNAc(b1-4)]Gal(b1-4)Glc
# How it was run: as §1
# [27] = target: Neu5Ac(a2-8)Neu5Ac(a2-8)Neu5Ac(a2-8)Neu5Ac(a2-3)[GalNAc(b1-4)]Gal(b1-4)Glc
# How it was run: as §1
# [28] = target: Neu5Ac(a2-8)Neu5Gc(a2-3)Gal(b1-4)GlcNAc
# How it was run: as §1
# [29] = target: Neu5Ac(b2-6)Gal(b1-4)GlcNAc
# How it was run: as §1
# Neu5Ac(b2-6)GalNAc = target: Neu5Ac(b2-6)GalNAc
# How it was run: as §1
# [30] = target: Neu5Ac9Ac(a2-3)Gal(b1-3)GlcNAc
# How it was run: as §1
# [31] = target: Neu5Ac9Ac(a2-3)Gal(b1-4)GlcNAc
# How it was run: as §1
# [32] = target: Neu5Ac9Ac(a2-6)Gal(b1-4)GlcNAc
# How it was run: as §1
# [33] = target: Neu5Gc(a2-3)Gal(b1-3)GlcNAc
# How it was run: as §1
# [34] = target: Neu5Gc(a2-3)Gal(b1-3)[Fuc(a1-4)]GlcNAc
# How it was run: as §1
# Neu5Gc(a2-3)Gal(b1-4)Glc = target: Neu5Gc(a2-3)Gal(b1-4)Glc
# How it was run: as §1
# [35] = target: Neu5Gc(a2-3)Gal(b1-4)GlcNAc
# How it was run: as §1
# [36] = target: Neu5Gc(a2-3)Gal(b1-4)GlcNAc(b1-3)Gal(b1-4)GlcNAc(b1-2)Man(a1-3)[Neu5Gc(a2-3)Gal(b1-4)GlcNAc(b1-3)Gal(b1-4)GlcNAc(b1-2)Man(a1-6)]Man(b1-4)GlcNAc(b1-4)GlcNAc
# How it was run: as §1
# [37] = target: Neu5Gc(a2-3)Gal(b1-4)[Fuc(a1-3)]GlcNAc
# How it was run: as §1
# [38] = target: Neu5Gc(a2-6)Gal(b1-4)GlcNAc
# How it was run: as §1
# Neu5Gc(a2-6)GalNAc = target: Neu5Gc(a2-6)GalNAc
# How it was run: as §1
# [39] = target: Neu5Gc(a2-8)Neu5Ac(a2-3)Gal(b1-4)GlcNAc
# How it was run: as §1
# [40] = target: Neu5Gc(a2-8)Neu5Gc(a2-3)Gal(b1-4)GlcNAc
# How it was run: as §1
binder,measurement,setting,value
B1,glycan array binding signal (z-score),[1],-0.271
same,glycan array binding signal (z-score),[2],-0.022
same,glycan array binding signal (z-score),[3],-0.182
same,glycan array binding signal (z-score),[4],-0.128
same,glycan array binding signal (z-score),[5],-0.205
same,glycan array binding signal (z-score),[6],-0.17
same,glycan array binding signal (z-score),[7],-0.248
same,glycan array binding signal (z-score),[8],-0.207
same,glycan array binding signal (z-score),[9],-0.15
same,glycan array binding signal (z-score),[10],-0.274
same,glycan array binding signal (z-score),[11],-0.239
same,glycan array binding signal (z-score),[12],-0.335
same,glycan array binding signal (z-score),Neu5Ac(a2-6)GalNAc,-0.337
same,glycan array binding signal (z-score),[13],-0.39
same,glycan array binding signal (z-score),[14],-0.338
same,glycan array binding signal (z-score),[15],-0.259
same,glycan array binding signal (z-score),[16],-0.225
same,glycan array binding signal (z-score),Neu5Ac(a2-8)Neu5Ac,-0.12
same,glycan array binding signal (z-score),[17],-0.326
same,glycan array binding signal (z-score),[18],-0.199
same,glycan array binding signal (z-score),[19],-0.347
same,glycan array binding signal (z-score),[20],-0.333
same,glycan array binding signal (z-score),[21],-0.343
same,glycan array binding signal (z-score),[22],-0.26
same,glycan array binding signal (z-score),[23],-0.199
same,glycan array binding signal (z-score),[24],-0.322
same,glycan array binding signal (z-score),[25],-0.222
same,glycan array binding signal (z-score),[26],-0.233
same,glycan array binding signal (z-score),[27],-0.316
same,glycan array binding signal (z-score),[28],-0.3
same,glycan array binding signal (z-score),[29],-0.194
same,glycan array binding signal (z-score),Neu5Ac(b2-6)GalNAc,-0.219
same,glycan array binding signal (z-score),[30],-0.136
same,glycan array binding signal (z-score),[31],-0.171
same,glycan array binding signal (z-score),[32],-0.261
same,glycan array binding signal (z-score),[33],-0.296
same,glycan array binding signal (z-score),[34],-0.25
same,glycan array binding signal (z-score),Neu5Gc(a2-3)Gal(b1-4)Glc,-0.352
same,glycan array binding signal (z-score),[35],-0.339
same,glycan array binding signal (z-score),[36],-0.113
same,glycan array binding signal (z-score),[37],-0.253
same,glycan array binding signal (z-score),[38],-0.24
same,glycan array binding signal (z-score),Neu5Gc(a2-6)GalNAc,-0.28
same,glycan array binding signal (z-score),[39],-0.289
same,glycan array binding signal (z-score),[40],-0.161
